Molecules are shown by their SMILES. Where a SMILES comes first, the peptide text is derived from it. Bridges are numbered along the chain shown (N, C = ends). [ ]: non-standard residue; d: D form. The star is where a group is joined. Phe(3,5-F2) = N[C@@H](Cc1cc(F)cc(F)c1)C(=O)O; Pip(4S-Me) = C[C@H]1CCN[C@H](C(=O)O)C1; Pro(4R-Me) = C[C@H]1CN[C@H](C(=O)O)C1; Heptenoyl(2E) = CCCC/C=C/C(=O)*; aThr = C[C@H](O)[C@H](N)C(=O)O; Pip = O=C(O)[C@@H]1CCCCN1; X1 = CCC/C=C/C=C/C(=O)*

Data set [1] has as its system MDA-MB-231 CLPP-KD cells. As to the kind of experiment: Cytotoxicity test, SRB staining, 72 hours. It is filed as cell-based, human. Particulars: MDA-MB-231 CLPP-KD vs WT. For orientation: Sulforhodamine B stains cellular protein and so reports cell mass.
Data set [2] has as its target T1, human mitochondrial CIpP (HsCIpP) (Homo sapiens, UniProt Q16740).
T1 construct: made in house; host or cells: E. coli SG1146 (BL21(DE3) ΔclpP::cat)
As to the kind of experiment: Screen of ADEP analogs against HsCIpP: relative degradation (RD) index, casein-FITC degradation relative to E. coli CIpAP. It is filed as biochemical. Also noted: key: casein-FITC degradation by HsClpP relative to EcClpAP. The following applies: for Hs RD5: RD value at 5 μM of the ADEP analog. From the text: Structural analogs of acyldepsipeptide (ADEP) (Goodreid et al., 2016) that were previously developed as potential antibiotics against bacterial CIpP were screened and assessed for their ability to activate and dysregulate the protease activity of HsCIpP, by measuring their relative degradation (RD) index. Note that ADEP-28 was also previously reported by Carney et al. (2014). Details of the experimental protocol have been described in Leung et al., 2011. The RD index is defined as follows: […]
Δφ is the change in fluorescence after 6 hr of starting the reaction measured using 485 nm excitation and 535 nm emission, which primarily detects the signal from casein-FITC. E. coli CIpAP was used as a benchmark for maximum CIpP proteolytic activity. The CIpP in the numerator can be from any other organism. RD25 measurements refer to the measurement in the presence of 25 μM compound. All ADEP analogs were first screened at 25 μM, and their RD25 scores were calculated using the above formula and method as described in Leung et al., 2011 (FIG. 1A). Those that achieved RD25≥0.87 were screened a second time at 5 μM, followed by calculation of their RD5 scores. The top analogs with RD5≥0.74 were screened a third time at 1 μM, followed by calculation of their RD1 scores (FIG. 1B).
To identify ADEP analogs that allow HsCIpP to degrade folded proteins independent of HsCIpX+ATP (i.e., that activate or dysregulate HsCIpP), the inventors employed the in vitro screening method that was used for identifying small molecule activators of Escherichia coli CIpP (EcCIpP) (Leung et al., 2011). In this approach, the ability of HsCIpP to degrade FITC-labeled casein (casein-FITC) was measured and compared to the ability of EcCIpAP to degrade casein-FITC. This is quantitatively expressed as relative degradation (RD) index (Leung et al., 2011).

In data set [3] the test system is MDA-MB-231 CLPP-KD cells. As to the kind of experiment: Scratch wound healing assay. In kind it is cell-based, human. The following applies: 100-500 nM, 48 hours, serum-free.
For the next data set, the system named is MDA-MB-231 WT cells. As to the kind of experiment: Scratch wound healing assay. It is filed as cell-based, human. Particulars: 100-500 nM, 48 hours, serum-free.

T1 sequence (Q16740 57-277): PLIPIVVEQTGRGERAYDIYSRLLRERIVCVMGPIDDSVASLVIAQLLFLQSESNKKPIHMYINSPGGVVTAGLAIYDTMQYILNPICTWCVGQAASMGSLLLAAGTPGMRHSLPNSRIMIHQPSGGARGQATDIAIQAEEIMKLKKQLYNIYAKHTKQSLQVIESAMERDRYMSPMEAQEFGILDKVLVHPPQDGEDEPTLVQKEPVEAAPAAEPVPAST

As to `CCC/C=C/C=C/C(=O)N[C@@H](Cc1cc(F)cc(F)c1)C(=O)N[C@@H]1C(=O)N2CCC[C@H]2C(=O)N2CCCC[C@H]2C(=O)N[C@@H](C)C(=O)N2C[C@H](C)C[C@H]2C(=O)O[C@H]1C` [ADEP-14] (X1-[Phe(3,5-F2)][aThr]P[Pip]A[Pro(4R-Me)]; ester 2-C), the “lower response to induced cytotoxicity compared to MDA-MB-231 WT” value in the data set with MDA-MB-231 CLPP-KD cells [1] is recorded as 10 ×. Besides, in data set [2], the “Hs RD5” value is 0.92. Besides, the results for the “2D cell migration (scratch wound closure)” value in the data set on MDA-MB-231 CLPP-KD cells [3] and in the data set with MDA-MB-231 WT cells were “unaffected” and “impaired 2D migration”, respectively.

Regarding `CCCC/C=C/C(=O)N[C@@H](Cc1cc(F)cc(F)c1)C(=O)N[C@@H]1C(=O)N2CCC[C@H]2C(=O)N2CC[C@H](C)C[C@H]2C(=O)N[C@@H](C)C(=O)N2CCC[C@H]2C(=O)O[C@H]1C` [ADEP-28] ({Heptenoyl(2E)}-[Phe(3,5-F2)][aThr]P[Pip(4S-Me)]AP; ester 2-C), in data set [2] (RD value at 1 μM of the ADEP analog), the “Hs RD1” value turned out to be 0.82. Further, the “Hs RD5” value in data set [2] came out at 0.93.

The record behind these values is US20210171576A1, “METHODS FOR TREATING CANCER WITH ACYLDEPSIPEPTIDE ANALOGS” (priority 2018, published 2021).
